Experimental data: PubChem BioAssay AID485313 (National Center for Advancing Translational Sciences (NCATS), 2010)
Hit rate of the full screen: of about 320,000 compounds, about 7,600 (2.4%) were called active. Inconclusive means that the source gave no clear call. Such entries were picked first, then a sample of the others. The call rests on the fitted dose curve; in most records, active means well fitted activation curve with a large enough effect; inconclusive means small, poorly fitted or top-dose-only effect; inactive means no such curve, though single readings can be large or run the other way. Where the call is inconclusive, the potency comes from a doubtful curve fit.

Test: qHTS Assay for NPC1 Promoter Activators; further: nearly all actives have a fitted effect of over 60% in size;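 on activation: reporter is driven by a mutant NPC1 promoter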
Settings: Huh7 NPC1 promoter luciferase reporter, 24 h; series mostly up to 9.22 µM
How it was run: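 Huh7 cells stably carrying NPC1 promoter–luciferase, plated in Opti-MEM with 10% FBS for 2 h, were exposed to compound in DMSO for 24 h at 37 °C; luciferase reagent was added for 10 min and luminescence read.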
Potency means the concentration at half of the fitted maximal effect; tags describe the fitted curve by direction and shape.

Potency, inconclusive:
N/C(=N\OCc1ccc([N+](=O)[O-])cc1)c1ccncc1 3.55 µM [activator, single point]
COc1ccccc1OCCn1nnc2ccccc21 2.82 µM [activator, single point]
O=C1N=C(N2CCCCC2)S/C1=C\c1ccccc1F 3.55 µM [activator, partial curve]
Cc1ccc(C(=O)c2coc3ccc(O)cc23)cc1 4.47 µM [activator, single point]
C/C(=N\NC(=O)c1ccc2c(c1)OCCO2)c1ccccc1 0.0891 µM [activator, full curve]
CCc1nnc(NC(=O)/C=C/c2ccc(C)o2)s1 5.62 µM [activator, single point]
O=C(Nc1nc(-c2ccc3c(c2)OCO3)cs1)C1CC1 3.98 µM [activator, partial curve]
COc1ccc(OCc2cc(C(=O)NCC3CCOCC3)no2)c(Cl)c1 6.31 µM [activator, single point]
CCOC(=O)N/N=C/c1ccc(Oc2ccccc2)cc1 3.16 µM [activator, single point]
CN1CCN(Cc2ccc(OCc3ccccc3)cc2)CC1 3.55 µM [activator, single point]
COc1cc(NC(=O)c2cc(C)on2)cc(C(=O)Nc2cccc(C(F)(F)F)c2)c1 3.98 µM [activator, single point]
O=C(O)c1cc(N/N=C/c2ccc3c(c2)OCCO3)ccc1Cl 0.0891 µM [activator, full curve, poor fit]
COc1cc(C2Nc3cccc4cccc(c34)N2)ccc1O 4.47 µM [activator, single point]
Cc1ccc(NCC(=O)N/N=C\c2ccc[nH]2)cc1 1.12 µM [activator, single point]
Cc1ccc(N(CC(=O)Nc2ccc3c(c2)OCCO3)S(C)(=O)=O)cc1 3.55 µM [activator, single point]
COc1ccc(NC(=O)/C(C#N)=C/c2ccc(-c3ccc(Cl)c(C(=O)O)c3)o2)cc1 3.55 µM [activator, partial curve]
C/C(=N\Nc1nc2ccccc2[nH]1)c1ccc(Cl)s1 2.51 µM [activator, partial curve]
COc1ccc(CN(C(=O)Cn2nnc(-c3ccc(C)o3)n2)C(C(=O)NCC2CCCO2)c2ccco2)cc1 (configuration not stated) 0.1 µM [activator, full curve]
O=C(CSC1=NCCS1)N1CCc2ccccc21 3.16 µM [activator, single point]
Fc1cccc(/C=N/Nc2ncnc3nc[nH]c23)c1 3.98 µM [activator, partial curve]
O=C(Nc1cccc(Br)c1)c1ccn[nH]1 5.62 µM [activator, single point]
O=C(c1cccs1)N1CCc2ccccc21 3.98 µM [activator, partial curve]
CCn1c(C)c(/C=N/Nc2nc3ccccc3s2)c2ccccc21 5.01 µM [activator, single point]

Potency, inactive:
Cc1cccc(C(=O)Nc2nnc(SCC(=O)Nc3ccc4c(c3)oc3ccccc34)s2)c1
O=C(c1cc2nc(-c3ccc(Cl)cc3)cc(C(F)(F)F)n2n1)N1CCOCC1
COc1ccc2c(c1)CCc1cc(C(=O)N3CCN(c4ccc(N5CCOCC5)nn4)CC3)sc1-2
COc1ccc(C2/C(=C(/O)c3ccccc3)C(=O)C(=O)N2C)c(OC)c1 (configuration not stated)
COc1ccccc1Nc1nnc(SCC(=O)NC2CC2)s1
Cc1cccc(N=C/C(C(=O)C(F)(F)F)=C(\O)c2ccco2)c1
Cc1sc2nc3n(c(=O)c2c1C)Cc1ccccc1-3
COc1cccc(/C=C/C(=O)Nc2ccccc2N2CCOCC2)c1
O=C(OCN1C(=O)c2ccccc2C1=O)c1cccc(OC(F)F)c1
O=C(Nc1nc(-c2ccc(Cl)cc2)cs1)C1CCCO1 (configuration not stated)
S=C(NC1CCCCC1)N1CCOCCOCCN(C(=S)NC2CCCCC2)CCOCCOCC1
Cc1cc(C)c(C)c(S(=O)(=O)N[C@@H](C)C(=O)OCc2cc(=O)n3cc(Br)ccc3n2)c1C
Nc1nc(Nc2ccccc2)nc(NCc2ccccc2)c1[N+](=O)[O-]
O=C(Cc1ncc(C(F)(F)F)cc1Cl)NNc1cccc(F)n1
CCOC(=O)C(/C(N)=N/C(=O)Nc1ccccc1)=C(\C)O
O=C(CN1CCN(S(=O)(=O)c2ccc(Br)cc2)CC1)N/N=C/c1cccnc1

Potency, active:
CCOC(=O)c1cccc(NC(=O)Nc2ccc(OCC)cc2)c1 1.78 µM
Cc1ccc(C(=O)Nc2ccc(C)c(S(=O)(=O)N(C)C)c2)s1 2.82 µM
CCOC(=O)c1oc2nc3c(cc2c1N)CCCC3 1.41 µM
CC(=O)Oc1ccc(C(=O)Nc2ccc3c(c2)OCCO3)cc1 1 µM
O=C(CSc1nnc(-c2ccco2)n1Cc1ccccc1)c1ccccc1 4.47 µM
Brc1ccc(-c2cn3c(n2)SCC3)cc1 1.12 µM
CCc1cc(C(=O)Nc2ncccc2O)sc1C 1.12 µM
C=CCSc1n[nH]c(-c2ccc(OC)cc2)n1 2.82 µM
COc1ccc(/C=C/C(=O)c2c(O)cc(C)oc2=O)c(OC)c1 3.55 µM
CS(=O)(=O)N1CCN(c2ccc(NC(=O)c3ccc(Br)o3)cc2)CC1 2.82 µM
CCC(=O)Nc1cccc(-c2ccc(N3CCN(C)CC3)nn2)c1 2.51 µM
Cc1ccc(NC(=O)CN2CCCCCC2)c(Br)c1 3.98 µM
COc1cc(/C=C/c2nc3ccccc3c(=O)[nH]2)ccc1OC(F)F 5.01 µM
